Assay results from paper PMC4742118.
These are yes or no findings as the source states them, for the method shown. For part of these data: Binding seen in cells or lysates may run through a third protein. Some binding calls cover weakened binding; strength is not graded here. For part of these data: Tags and fused reporters may be left off the sequences shown.

The chains behind the UniProt entries cited, without tags or fusion partners. Residues count along the entry.
UniProt P61168: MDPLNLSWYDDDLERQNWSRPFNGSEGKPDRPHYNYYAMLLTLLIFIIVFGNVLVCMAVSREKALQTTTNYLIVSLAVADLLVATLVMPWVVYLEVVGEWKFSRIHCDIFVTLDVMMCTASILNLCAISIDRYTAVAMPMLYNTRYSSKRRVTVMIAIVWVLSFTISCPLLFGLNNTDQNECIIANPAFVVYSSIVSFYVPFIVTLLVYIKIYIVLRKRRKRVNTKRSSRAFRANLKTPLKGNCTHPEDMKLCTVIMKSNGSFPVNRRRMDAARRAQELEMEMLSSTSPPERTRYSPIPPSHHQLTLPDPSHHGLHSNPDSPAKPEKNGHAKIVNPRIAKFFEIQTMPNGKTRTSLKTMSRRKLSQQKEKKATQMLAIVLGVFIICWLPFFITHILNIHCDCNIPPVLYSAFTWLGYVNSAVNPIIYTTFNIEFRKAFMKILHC
UniProt P42866: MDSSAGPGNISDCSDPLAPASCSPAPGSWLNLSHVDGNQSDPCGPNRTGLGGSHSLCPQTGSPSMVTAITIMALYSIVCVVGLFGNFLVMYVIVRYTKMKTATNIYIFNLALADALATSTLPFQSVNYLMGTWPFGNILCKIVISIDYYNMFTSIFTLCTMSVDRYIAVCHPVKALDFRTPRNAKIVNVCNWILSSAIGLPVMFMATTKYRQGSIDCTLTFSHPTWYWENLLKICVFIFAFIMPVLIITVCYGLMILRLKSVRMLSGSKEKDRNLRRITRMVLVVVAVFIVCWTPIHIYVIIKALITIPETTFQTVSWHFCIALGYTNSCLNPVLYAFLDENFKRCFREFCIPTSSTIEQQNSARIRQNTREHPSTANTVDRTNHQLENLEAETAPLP
UniProt Q9Z0J4: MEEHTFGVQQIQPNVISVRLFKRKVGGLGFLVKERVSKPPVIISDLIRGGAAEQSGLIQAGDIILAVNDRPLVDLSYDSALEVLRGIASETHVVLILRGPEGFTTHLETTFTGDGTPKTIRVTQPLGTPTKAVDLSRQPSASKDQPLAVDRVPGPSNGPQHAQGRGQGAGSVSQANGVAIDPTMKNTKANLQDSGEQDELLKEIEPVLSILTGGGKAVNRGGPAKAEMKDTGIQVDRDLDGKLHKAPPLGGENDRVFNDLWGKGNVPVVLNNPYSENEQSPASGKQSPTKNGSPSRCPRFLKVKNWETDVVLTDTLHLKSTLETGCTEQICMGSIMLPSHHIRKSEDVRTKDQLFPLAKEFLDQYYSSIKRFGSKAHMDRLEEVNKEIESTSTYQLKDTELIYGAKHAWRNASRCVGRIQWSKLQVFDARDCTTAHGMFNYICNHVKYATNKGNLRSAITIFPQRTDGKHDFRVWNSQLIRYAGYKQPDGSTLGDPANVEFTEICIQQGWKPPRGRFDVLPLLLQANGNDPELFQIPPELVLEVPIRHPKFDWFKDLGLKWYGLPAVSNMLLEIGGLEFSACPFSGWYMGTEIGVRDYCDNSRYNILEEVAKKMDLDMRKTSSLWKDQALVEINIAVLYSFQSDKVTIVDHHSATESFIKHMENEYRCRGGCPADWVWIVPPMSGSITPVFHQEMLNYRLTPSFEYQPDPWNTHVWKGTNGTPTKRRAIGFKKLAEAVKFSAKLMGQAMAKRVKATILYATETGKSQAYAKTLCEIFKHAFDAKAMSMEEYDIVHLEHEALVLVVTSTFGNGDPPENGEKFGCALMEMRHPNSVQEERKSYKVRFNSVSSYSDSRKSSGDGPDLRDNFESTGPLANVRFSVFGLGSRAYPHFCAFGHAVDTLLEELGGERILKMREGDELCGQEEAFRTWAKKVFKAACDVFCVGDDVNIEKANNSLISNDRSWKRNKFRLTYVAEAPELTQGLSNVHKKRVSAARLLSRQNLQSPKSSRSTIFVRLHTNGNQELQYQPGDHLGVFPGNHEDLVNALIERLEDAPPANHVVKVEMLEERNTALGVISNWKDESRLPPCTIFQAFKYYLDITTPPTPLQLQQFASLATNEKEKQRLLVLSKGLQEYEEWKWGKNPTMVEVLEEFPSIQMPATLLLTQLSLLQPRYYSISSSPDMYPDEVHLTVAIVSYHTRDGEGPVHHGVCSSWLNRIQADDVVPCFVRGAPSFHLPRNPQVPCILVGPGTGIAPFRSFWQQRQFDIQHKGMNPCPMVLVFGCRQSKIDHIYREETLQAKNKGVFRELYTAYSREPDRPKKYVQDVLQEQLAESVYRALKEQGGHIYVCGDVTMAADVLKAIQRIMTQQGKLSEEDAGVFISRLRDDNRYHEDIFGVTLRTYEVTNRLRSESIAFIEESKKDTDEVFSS
UniProt Q3UVX5, residues 19-1203: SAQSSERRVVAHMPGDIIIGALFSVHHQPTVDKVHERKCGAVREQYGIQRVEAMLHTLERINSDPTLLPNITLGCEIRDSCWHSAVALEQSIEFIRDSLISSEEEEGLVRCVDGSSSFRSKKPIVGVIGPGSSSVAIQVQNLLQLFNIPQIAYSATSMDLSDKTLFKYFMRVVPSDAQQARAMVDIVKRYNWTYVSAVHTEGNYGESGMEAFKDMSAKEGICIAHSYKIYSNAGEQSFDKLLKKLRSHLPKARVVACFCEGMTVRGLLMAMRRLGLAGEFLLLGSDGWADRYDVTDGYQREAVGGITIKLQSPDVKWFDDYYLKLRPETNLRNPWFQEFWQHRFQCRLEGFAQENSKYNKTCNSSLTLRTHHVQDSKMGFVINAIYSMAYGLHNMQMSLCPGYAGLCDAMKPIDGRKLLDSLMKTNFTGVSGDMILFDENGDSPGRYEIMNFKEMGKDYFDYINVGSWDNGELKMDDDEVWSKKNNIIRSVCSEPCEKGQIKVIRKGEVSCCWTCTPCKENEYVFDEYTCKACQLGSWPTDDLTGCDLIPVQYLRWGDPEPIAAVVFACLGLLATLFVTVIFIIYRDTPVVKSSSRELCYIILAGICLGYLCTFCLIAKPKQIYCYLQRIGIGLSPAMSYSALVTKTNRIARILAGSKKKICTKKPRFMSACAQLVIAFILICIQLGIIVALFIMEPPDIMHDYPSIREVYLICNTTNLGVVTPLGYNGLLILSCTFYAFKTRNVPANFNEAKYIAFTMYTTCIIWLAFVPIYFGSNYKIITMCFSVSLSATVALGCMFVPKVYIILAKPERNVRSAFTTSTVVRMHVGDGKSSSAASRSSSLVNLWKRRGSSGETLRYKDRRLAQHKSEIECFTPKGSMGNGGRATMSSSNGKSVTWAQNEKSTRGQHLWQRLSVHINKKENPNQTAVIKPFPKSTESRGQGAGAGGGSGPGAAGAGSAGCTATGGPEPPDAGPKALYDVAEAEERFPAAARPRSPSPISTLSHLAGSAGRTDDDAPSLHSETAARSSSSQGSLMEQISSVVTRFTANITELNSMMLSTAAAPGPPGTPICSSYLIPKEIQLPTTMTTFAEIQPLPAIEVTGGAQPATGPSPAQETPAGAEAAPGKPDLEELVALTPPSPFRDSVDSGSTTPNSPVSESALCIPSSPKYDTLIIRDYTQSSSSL
UniProt Q61616: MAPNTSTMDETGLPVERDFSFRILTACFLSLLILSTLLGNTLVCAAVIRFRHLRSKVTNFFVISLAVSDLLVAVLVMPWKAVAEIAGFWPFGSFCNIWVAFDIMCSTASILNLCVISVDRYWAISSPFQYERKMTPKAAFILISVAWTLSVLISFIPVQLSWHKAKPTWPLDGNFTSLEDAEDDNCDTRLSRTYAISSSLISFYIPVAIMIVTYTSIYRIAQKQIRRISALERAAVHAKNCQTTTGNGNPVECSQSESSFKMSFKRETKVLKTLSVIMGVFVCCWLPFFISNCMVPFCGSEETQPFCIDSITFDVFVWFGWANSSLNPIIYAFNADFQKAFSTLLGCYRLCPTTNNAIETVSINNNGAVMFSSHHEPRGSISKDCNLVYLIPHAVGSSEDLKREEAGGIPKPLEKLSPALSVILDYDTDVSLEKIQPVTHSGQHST
UniProt P47746: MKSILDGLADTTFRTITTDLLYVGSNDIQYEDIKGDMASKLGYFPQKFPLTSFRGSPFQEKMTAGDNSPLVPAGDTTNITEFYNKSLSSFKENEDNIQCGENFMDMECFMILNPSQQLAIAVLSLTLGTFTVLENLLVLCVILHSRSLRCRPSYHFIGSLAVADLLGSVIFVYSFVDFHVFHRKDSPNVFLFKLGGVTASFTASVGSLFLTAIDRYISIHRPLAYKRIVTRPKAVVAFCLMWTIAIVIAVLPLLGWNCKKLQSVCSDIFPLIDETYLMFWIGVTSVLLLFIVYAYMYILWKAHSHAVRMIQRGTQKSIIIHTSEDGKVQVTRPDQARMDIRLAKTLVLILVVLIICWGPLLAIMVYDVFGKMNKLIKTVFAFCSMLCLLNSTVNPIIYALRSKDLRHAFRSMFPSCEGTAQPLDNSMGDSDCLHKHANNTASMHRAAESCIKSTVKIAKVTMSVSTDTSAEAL
UniProt Q14BI2, residues 19-872: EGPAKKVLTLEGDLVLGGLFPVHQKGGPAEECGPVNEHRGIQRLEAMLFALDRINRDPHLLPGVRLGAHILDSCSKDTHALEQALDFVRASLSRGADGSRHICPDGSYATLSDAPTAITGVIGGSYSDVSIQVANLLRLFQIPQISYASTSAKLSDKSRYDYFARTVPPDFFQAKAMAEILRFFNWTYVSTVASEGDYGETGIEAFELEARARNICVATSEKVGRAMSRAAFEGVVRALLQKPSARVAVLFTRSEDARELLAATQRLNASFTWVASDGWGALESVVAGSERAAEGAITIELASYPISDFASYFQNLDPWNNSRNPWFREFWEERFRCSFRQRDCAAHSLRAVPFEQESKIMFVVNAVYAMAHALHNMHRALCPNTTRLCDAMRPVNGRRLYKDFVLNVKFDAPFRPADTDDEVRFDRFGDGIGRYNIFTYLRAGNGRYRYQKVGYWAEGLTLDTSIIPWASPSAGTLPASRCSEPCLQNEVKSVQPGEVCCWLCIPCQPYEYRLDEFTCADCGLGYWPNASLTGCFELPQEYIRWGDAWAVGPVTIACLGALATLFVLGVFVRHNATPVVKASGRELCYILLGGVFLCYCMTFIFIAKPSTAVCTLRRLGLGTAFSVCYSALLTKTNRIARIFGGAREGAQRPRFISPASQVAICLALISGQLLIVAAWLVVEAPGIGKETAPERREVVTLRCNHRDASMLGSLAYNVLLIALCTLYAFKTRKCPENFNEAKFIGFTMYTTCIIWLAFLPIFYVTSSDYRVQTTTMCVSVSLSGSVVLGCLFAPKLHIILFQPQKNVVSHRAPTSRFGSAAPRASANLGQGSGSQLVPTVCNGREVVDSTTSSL
UniProt Q64264: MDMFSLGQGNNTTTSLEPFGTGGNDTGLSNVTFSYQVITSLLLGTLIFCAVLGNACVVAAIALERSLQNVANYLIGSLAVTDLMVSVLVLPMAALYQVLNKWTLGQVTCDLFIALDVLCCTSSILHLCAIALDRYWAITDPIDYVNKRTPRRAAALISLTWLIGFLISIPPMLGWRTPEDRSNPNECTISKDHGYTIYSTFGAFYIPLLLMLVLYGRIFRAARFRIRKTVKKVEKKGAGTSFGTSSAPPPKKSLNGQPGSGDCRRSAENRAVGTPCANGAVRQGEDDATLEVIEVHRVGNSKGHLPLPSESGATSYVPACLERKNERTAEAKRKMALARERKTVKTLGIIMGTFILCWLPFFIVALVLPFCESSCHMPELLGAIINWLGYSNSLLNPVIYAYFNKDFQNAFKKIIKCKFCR
UniProt P35363: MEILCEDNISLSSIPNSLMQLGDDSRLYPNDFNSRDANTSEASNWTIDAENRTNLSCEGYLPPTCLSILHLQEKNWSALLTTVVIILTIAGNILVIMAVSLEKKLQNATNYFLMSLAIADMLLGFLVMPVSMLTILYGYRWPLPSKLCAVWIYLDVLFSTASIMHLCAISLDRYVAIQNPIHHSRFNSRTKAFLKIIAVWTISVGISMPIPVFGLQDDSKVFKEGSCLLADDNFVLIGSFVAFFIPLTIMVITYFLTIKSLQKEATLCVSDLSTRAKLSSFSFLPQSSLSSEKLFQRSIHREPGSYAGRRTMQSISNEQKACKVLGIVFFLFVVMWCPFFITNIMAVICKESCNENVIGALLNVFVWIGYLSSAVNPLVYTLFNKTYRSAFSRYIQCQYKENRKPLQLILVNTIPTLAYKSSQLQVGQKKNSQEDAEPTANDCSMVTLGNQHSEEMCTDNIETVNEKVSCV
UniProt O55242: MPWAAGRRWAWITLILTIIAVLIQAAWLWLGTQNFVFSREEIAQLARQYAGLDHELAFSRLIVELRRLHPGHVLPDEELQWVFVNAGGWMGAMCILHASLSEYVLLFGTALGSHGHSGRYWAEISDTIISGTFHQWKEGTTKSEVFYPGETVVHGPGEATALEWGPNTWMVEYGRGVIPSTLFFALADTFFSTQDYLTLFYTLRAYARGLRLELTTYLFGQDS

How the values were obtained:
[1] = biological target: dopamine D2 receptor, full length murine, BiFC fusion (murine) (UniProt P61168); experiment: split reporter; BiFC in living CHO cells transiently co-transfected with the pair of full-length proteins in the VN173 and VC155 plasmids (0.3 ug); confocal fluorescence 24 h later
[2] = biological target: mu-opioid receptor (MOR), full length murine, BiFC fusion (murine) (UniProt P42866); experiment: as above
[3] = biological target: T1, histidine triad nucleotide-binding protein 1 (HINT1), full length murine, BiFC fusion (murine) (UniProt P70349); experiment: as above
T1 sequence: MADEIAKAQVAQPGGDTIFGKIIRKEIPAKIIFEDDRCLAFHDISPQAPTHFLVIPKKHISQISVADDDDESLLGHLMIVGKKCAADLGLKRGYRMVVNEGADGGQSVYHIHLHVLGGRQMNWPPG

[4] = biological target: neural nitric oxide synthase (nNOS), full length murine, BiFC fusion (murine) (UniProt Q9Z0J4); experiment: as above
[5] = biological target: metabotropic glutamate 5 receptor, full length murine, BiFC fusion (murine) (UniProt Q3UVX5); experiment: as above
[6] = biological target: dopamine D1 receptor, full length murine, BiFC fusion (murine) (UniProt Q61616); experiment: as above
[7] = biological target: cannabinoid CB1 receptor, full length murine, BiFC fusion (murine) (UniProt P47746); experiment: as above
[8] = biological target: NMDAR NR1 C0-C1-C2 subunit, full length murine, BiFC fusion (murine) (UniProt P35438); experiment: as above
[9] = biological target: metabotropic glutamate 2 receptor, full length murine, BiFC fusion (murine) (UniProt Q14BI2); experiment: as above
[10] = biological target: serotonin 1A receptor, full length murine, BiFC fusion (murine) (UniProt Q64264); experiment: as above
[11] = biological target: serotonin 2A receptor, full length murine, BiFC fusion (murine) (UniProt P35363); experiment: as above
GST-NR1 C0-C1-C2 (mouse) = GST-NR1 C0-C1-C2 (mouse) (UniProt P35438); experiment: pull-down; bait (GST-NR1 C0-C1-C2 or GST-MOR) covalently attached to NHS-activated Sepharose; σ1R 100 nM in 50 mM Tris-HCl pH 7.4, 0.2% CHAPS, 30 min RT; 0 mM CaCl2; Western blot; both purified

| Substance | binding [1] | binding [2] | binding [3] | binding [4] | binding [5] | binding [6] | binding [7] | binding [8] | binding [9] | binding [10] | binding [11] | binding (GST-NR1 C0-C1-C2 (mouse)) |
| --- | --- | --- | --- | --- | --- | --- | --- | --- | --- | --- | --- | --- |
| sigma 1 receptor (σ1R), full length murine, BiFC fusion (from UniProt O55242 1-223) | binds | binds | binds | no binding | binds | binds | binds | binds | binds | binds | binds |  |
| recombinant σ1R (from UniProt O55242 1-223) (receptor) |  |  |  |  |  |  |  |  |  |  |  | binds weakly |
